Among the data in PubChem BioAssay AID488969 (Vanderbilt High Throughput Screening Facility, 2010) are z-score values, retold here.

The structures appear in SMILES notation. The full ranking holds about 110,000 compounds; the median of “z-score” is about -0.1, and the highest 2% start at about 2. The list shows a part of the results. Active and inactive are the calls of the source.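 Rule for the calls: active = z-score in the third read window above 3 or below -3; inactive = the rest.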

The experiment concerns the target Metabotropic glutamate receptor 8 (Rattus norvegicus) (UniProt P70579). The experiment can be described thus: mGluR8 Gi/Go-coupled signaling modulation – cell-based, rat, thallium flux, HTS, primary screen (AID 488969). The following applies: HEK293 rat mGluR8, GIRK (G protein-gated inwardly rectifying potassium channel) thallium flux, FluoZin2; at 10 µM; stronger effect = higher value; submaximal glutamate (EC20) added with thallium.
Chain of UniProt P70579 (P70579 whole entry, looked up): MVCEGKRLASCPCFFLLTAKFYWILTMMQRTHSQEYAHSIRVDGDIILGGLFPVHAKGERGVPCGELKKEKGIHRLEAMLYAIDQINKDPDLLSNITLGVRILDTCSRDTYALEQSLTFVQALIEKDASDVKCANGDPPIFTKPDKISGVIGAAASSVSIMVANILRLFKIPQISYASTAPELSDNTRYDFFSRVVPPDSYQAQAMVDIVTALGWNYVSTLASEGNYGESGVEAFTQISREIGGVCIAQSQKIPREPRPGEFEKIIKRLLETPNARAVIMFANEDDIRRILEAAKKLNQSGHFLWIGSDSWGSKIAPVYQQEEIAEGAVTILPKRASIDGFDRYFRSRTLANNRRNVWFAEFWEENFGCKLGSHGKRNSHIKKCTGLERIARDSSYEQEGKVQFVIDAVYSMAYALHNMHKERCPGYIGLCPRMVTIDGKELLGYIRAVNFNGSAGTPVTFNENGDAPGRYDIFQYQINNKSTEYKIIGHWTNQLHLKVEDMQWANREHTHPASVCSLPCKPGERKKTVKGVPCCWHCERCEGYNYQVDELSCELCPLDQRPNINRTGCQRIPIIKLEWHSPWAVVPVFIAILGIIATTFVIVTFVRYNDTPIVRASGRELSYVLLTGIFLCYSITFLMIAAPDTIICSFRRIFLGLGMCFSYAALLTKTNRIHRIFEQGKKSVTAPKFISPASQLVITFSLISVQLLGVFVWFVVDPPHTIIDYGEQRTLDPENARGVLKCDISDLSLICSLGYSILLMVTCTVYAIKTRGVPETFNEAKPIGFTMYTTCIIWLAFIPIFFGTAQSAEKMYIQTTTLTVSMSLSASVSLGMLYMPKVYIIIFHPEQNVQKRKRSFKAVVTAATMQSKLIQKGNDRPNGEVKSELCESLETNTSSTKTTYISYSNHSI
As to `COc1ccc(C(=S)Nc2ccccc2)cc1`, the z-score is -0.78.

On to `CCOc1cccc(C2c3c(oc4cc(C)c(C)cc4c3=O)C(=O)N2CCCN(C)C)c1` (centres undefined), for which the z-score is -0.527.

Consider `O=C(CSc1ccccn1)N1CCN(c2ccc(Cl)cc2)CC1`, for which the z-score was -0.69.

For the molecule `COc1ccc(/C=C2\SC(=O)N(CCNC(=O)Cc3coc4cc(C)ccc34)C2=O)cc1OC`, the z-score is -0.439.

`CCOC(=O)c1nn(-c2ccc(OCC)cc2)c(C)c1C(C)=O` registered a z-score of 0.0801.

`Cc1ccc(NC(=O)CSc2nccn2Cc2ccccc2)cc1C`: the z-score is -0.465.

`O=C1C2C3C=CC(CC3)C2C(=O)N1/N=C/c1ccc(O)cc1` (centres undefined) showed a z-score of 0.154.

In turn, `O=C(O)c1ccc(S(=O)(=O)NC2CCCc3ccccc32)cc1` (centres undefined) returned a z-score of 0.205.

With `COC(=O)c1ccc(OCCOc2ccc(C(=O)OC)cc2)cc1`, the z-score turned out to be 0.0695.

For the molecule `Fc1cc(F)c2nc(Nc3nc4c(F)cccc4s3)sc2c1`, the z-score is active: 9.18.

Take `Fc1ccc(C2C3=C(Nc4ncnn42)c2ccccc2OC3c2ccncc2)cc1` (centres undefined): the z-score was -0.692.

Consider `CN1CCc2c(C#N)c(N3CCCCC3)nc(NCc3ccccc3)c2C1`, for which the z-score is -0.559.

As to `CN(C)c1ccc(NC(=O)N2CCOCC2)cc1`, the z-score was -0.0524.

Turning to `COC(=O)CNc1c(-c2ccccn2)nc2ccc(Br)cn12`, the z-score was -0.134.

On to `COc1cc2[nH]c(=O)n(CCC(=O)N3CCc4ccccc4C3)c(=O)c2cc1OC`, for which the z-score is 1.38.

On to `Cc1cccnc1NC(=O)C1CCN(S(=O)(=O)c2c(C)noc2/C=C/c2ccco2)CC1`, for which the z-score was -0.314.

Take `CC(C)CC(NC(=O)C1CCC(C)CC1)C(=O)NCc1cccnc1` (centres undefined): the z-score was -0.402.

For `CCn1c(O)c(N=NC(=O)CNc2cccc(C)c2)c2ccccc21`, the z-score stood at 1.4.

For the molecule `Cc1ccc(OCCNC(=O)c2ccccc2N)cc1`, the z-score was -1.75.

`CC(C)c1ccc(NC(=O)COC(=O)[C@H](CCC(N)=O)NC(=O)c2ccc(F)cc2)cc1`: the z-score was -0.441.

In the case of `O=C(CCC(=O)N1CCN(C2CCCC2)CC1)Nc1nnc(C(F)(F)F)s1`, the z-score was -0.0144.

Consider `CCOc1ccc(CN2CCNC(=O)C2CC(=O)OC)cc1` (centres undefined), for which the z-score is -0.257.

On to `O=C(CCCn1c(=S)[nH]c2ccsc2c1=O)NCc1ccco1`, for which the z-score is -0.0898.

For `Cc1nc(-c2cccnc2)sc1C(=O)Nc1ccc(F)cc1F`, the z-score was -0.515.

Turning to `COc1ccc(C(=O)OCCNC(=O)c2c(Cl)nc3ccccn23)cc1`, the z-score was -1.08.

Consider `Cc1ccc(C(=O)OCC(=O)Nc2ccc(N(C)C)cc2)cc1NC(=O)c1ccco1`, for which the z-score is -0.348.

Regarding `c1ccc(COc2ccc(CNCc3cccs3)cc2)cc1`, the z-score came to 0.222.

For the molecule `COc1ccccc1Oc1coc2c(CN3CCN(C)CC3)c(O)ccc2c1=O`, the z-score amounted to 0.224.

Take `c1ccc(Cn2nnnc2CN2CCN(Cc3ccc4c(c3)OCO4)CC2)cc1`: the z-score is -0.89.

On to `Fc1cccc(Cn2cc(C(=S)N3CCCCC3)c3ccccc32)c1`, for which the z-score is -0.185.

`Cc1nn(CCO)c2c1C(=O)CCC2`: the z-score worked out at 0.148.

Regarding `Cc1c(NC(=O)c2ccc3c(c2)OCO3)cccc1-c1nc2ncccc2o1`, the z-score is -0.533.

Turning to `CCOC(=O)N1CCN(C(=O)COc2ccc(S(=O)(=O)NC3CCCCC3)cc2C)CC1`, the z-score was -0.335.

Turning to `COC(=O)COc1ccc(S(=O)(=O)Nc2ccccc2SC)cc1`, the z-score was -0.655.

As to `COC(=O)/C(=C\Nc1ccc(Cl)cc1Cl)NC(=O)c1ccccc1`, the z-score is -0.0888.

On to `Cc1ccc(NC(=O)/C=C/c2ccc([N+](=O)[O-])s2)c(C)c1`, for which the z-score was -0.186.

Consider `COc1ccc(S(=O)(=O)N(C)CC(=O)NC2CCCCC2)cc1OC`, for which the z-score stood at 0.13.

With `COc1ccc(OC)c(NC(=O)CNC(=O)Cn2c(C)cc3ccccc3c2=O)c1`, the z-score was 0.412.

With `Clc1ccc(CN(CC2CCCO2)C(c2cccs2)c2nnnn2C2CCCC2)cc1` (centres undefined), the z-score is -0.908.

`COc1ccc(-c2cn(-c3ccc(C)cc3)c(=O)n2CC(=O)Nc2ccc(OC)c(OC)c2)cc1`: the z-score was -0.529.

For `COC(=O)c1oc2ccc(Cl)cc2c1-n1cccc1`, the z-score was -0.217.

Turning to `CC(C)(C)C(=O)Nc1nc(-c2ccccc2)ns1`, the z-score is -0.358.

Molecule `C[C@@H](C(=O)NCc1ccccc1)N1C(=O)C2CC=CCC2C1=O` (some centres undefined) yielded a z-score of 0.0335.

In turn, `C/C(=C\C(=O)c1ccc(F)cc1)Nc1ccc(N2CCOCC2)cc1` had a z-score of 0.159.

Molecule `O=C(CCN1C(=O)C2C3C=CC(C3)C2C1=O)Nc1ccccc1F` (centres undefined) came in with a z-score of 0.166.

Regarding `O=C(Oc1ccc(C(=S)N2CCOCC2)cc1Br)c1cc(Cl)ccc1Cl`, the z-score amounted to 0.018.

For the molecule `COc1ccc(CN2C(=O)CN=C2Nc2ccc(C)cc2C)cc1`, the z-score was -0.413.

Regarding `O=C1C(=O)N(O)C2CCCCC2N1O` (centres undefined), the z-score was -0.199.

Consider `CCOC(=O)c1c(C)n(C)c2ccc(O)c(CN(CC)CC)c12`, for which the z-score was -2.05.

For the molecule `COCCn1c(C)cc(C(=O)CSc2nc3ccccc3c(=O)[nH]2)c1C`, the z-score is -0.655.

`CCOc1cc2[nH]c(=O)n(CCCCCC(=O)NCc3ccco3)c(=O)c2cc1OCC`: the z-score was -0.547.

Regarding `COc1cc(SC)ccc1C(=O)NCCc1ccccc1`, the z-score was -0.226.

For the molecule `COc1cc2[nH]c(=O)n(CCC(=O)N3CCN(c4cccc(C)c4C)CC3)c(=O)c2cc1OC`, the z-score was -0.719.

Consider `Cc1c(/C=C(\C#N)c2nn(-c3ccccc3)c(N)c2C#N)c2ccccc2n1Cc1ccc(F)cc1`, for which the z-score was -0.163.

With `S=C(NCC1CCCO1)n1nnc2ccccc21` (centres undefined), the z-score is -0.00788.

Regarding `Cc1ccccc1NC(=S)NC(NC(=O)C(C)(C)C)C(Cl)(Cl)Cl` (centres undefined), the z-score is -0.0313.

Take `Nc1nc(C(=O)N2CCOCC2)nn1S(=O)(=O)c1ccccc1`: the z-score is 0.534.

Regarding `C/C(=N\NC(=O)CC1N=C(Cc2ccccc2)NNC1=O)c1ccccc1` (centres undefined), the z-score was 0.263.

The molecule `Cc1ccccc1OCc1nc2ccccc2c(=O)n1NC(=O)c1ccco1` yielded a z-score of 0.652.

For `Cc1nc([N+](=O)[O-])c(Sc2nc3ccccc3[nH]2)n1Cc1ccccc1`, the z-score was -0.0581.

`COC(=O)c1ccc(C2C(C(C)=O)=C(C)Nc3ncnn32)cc1` (centres undefined) displayed a z-score of 1.05.

Turning to `COc1ccc(C2NC(c3ccc(OC)cc3)C(c3ccccc3)C(=O)C2c2ccccc2)cc1` (centres undefined), the z-score is -0.191.

For `Cc1ccc(OCC(=O)N2CCCc3ccccc32)cc1`, the z-score is -0.576.

In turn, `O=C(NC(Nc1ccc(F)cc1)(C(F)(F)F)C(F)(F)F)c1cccnc1` registered a z-score of 0.47.

On to `COC(=O)C1=C(CSc2nncn2C)NC(=O)NC1c1cc(C)ccc1C` (centres undefined), for which the z-score is -0.757.

Take `CC1(C)CC(=O)C2=C(C1)N(Cc1ccco1)C(=O)C2(NC(=O)c1ccc(Cl)cc1Cl)C(F)(F)F` (centres undefined): the z-score was -0.289.

Regarding `CC(C)(C)NC(=O)COC(=O)c1ccccc1Nc1ccc(SC(F)F)cc1`, the z-score was -0.243.

`O=C(COC(=O)Cc1ccc2c(c1)OCCO2)Nc1ccc(S(=O)(=O)N2CCCC2)cc1`: the z-score was -0.144.

With `Cc1nnc(NC2=NCCC2)s1`, the z-score came out at 0.619.

On to `CCOC(=O)CN(C(=O)CNC(=O)c1cccs1)C(C(=O)NC1CCCCC1)c1cccs1` (centres undefined), for which the z-score was -0.187.

On to `Cn1nc(-c2ccccc2F)c2cc(C(=O)Nc3ccc4c(c3)OCCO4)sc21`, for which the z-score was -0.17.

In the case of `Cc1ccc(-n2ncc3c(NCc4ccccc4)ncnc32)cc1`, the z-score is -0.114.

In turn, `O=C(COc1ccc(Cl)cc1)NCc1nnc(SCC(=O)N2CCCCC2)o1` yielded a z-score of 0.791.

Turning to `O=C(NCCSc1ccccc1)c1cccnc1`, the z-score was 0.204.

Consider `Cc1ccc(C2NC(=S)NC3=C2C(=O)CC(C)(C)C3)cc1` (centres undefined), for which the z-score is -0.209.

`C/C(=N/NC(=O)c1cn(-c2cccc(C)n2)cn1)c1ccc(C)cc1` registered a z-score of 1.18.

As for `O=C(/C=C/c1ccco1)NC(=S)NNC(=O)c1ccco1`, the z-score came to 1.53.

In the case of `Cc1cc(C)c2nc(Cl)c(CN(Cc3ccco3)C(=O)Nc3ccccc3C)cc2c1`, the z-score was -0.885.

In turn, `Cc1cccc(-n2c(C)cc(/C=C3/C(=N)N4C(c5ccccc5)=CSC4=NC3=O)c2C)c1` had a z-score of 0.612.

The molecule `CCOC(=O)c1c(-c2ccc(C)cc2)csc1NC(=O)CCN1CC(C)OC(C)C1` (centres undefined) returned a z-score of 0.589.

`COC(=O)c1cc(NC(=O)CC2NCCNC2=O)cc(C(=O)OC)c1` (centres undefined): the z-score was 0.176.

Turning to `Cc1occc1C(=O)NCc1ccc2c(c1)OCO2`, the z-score is -0.3.

For `COC(=O)c1ccc(OCC(=O)NC(C)(C)C)cc1`, the z-score came to 0.212.

For `O=C(Cn1c(C(F)(F)F)nc2ccccc21)Nc1ccccc1N1CCOCC1`, the z-score was -0.26.

For `CCC(C)NS(=O)(=O)c1ccc(NC(=O)c2ccc([N+](=O)[O-])cc2Cl)cc1` (centres undefined), the z-score is 0.0866.

In the case of `CC(OC(=O)Cn1c(C(F)(F)F)nc2ccccc21)C(N)=O` (centres undefined), the z-score is -0.166.

As to `O=S(=O)(c1cc(Cl)ccc1Cl)N1CCN(Cc2ccc3c(c2)OCO3)CC1`, the z-score was -0.0702.

Consider `Cc1sc2ncnc(N/N=C/c3ccccc3O)c2c1C`, for which the z-score is -0.215.

Turning to `CC(C)CSc1nnc(N)s1`, the z-score is 0.107.

As for `COc1ccccc1/C=C/C(=O)N1CCC(c2ccccc2)C1` (centres undefined), the z-score was -0.00988.

As to `C=CCN(CC=C)CC(=O)Nc1ccc(S(N)(=O)=O)cc1`, the z-score amounted to 0.0227.

Take `COc1cc(C)nc(NCc2ccccc2)n1`: the z-score came out at 0.0516.

For the molecule `O=c1[nH]c(SCc2ccccc2)nnc1-c1ccccc1`, the z-score was -0.0537.

Molecule `Clc1ccc(CN2CCCCCCC2)cc1` displayed a z-score of 0.0189.

`Cc1cc(C)cc(OCc2nnc(SCC(=O)c3ccc(Br)cc3)o2)c1` displayed a z-score of 0.367.

`Cc1nnc(SCCCn2c(N3CCCCC3)nc3c2c(=O)[nH]c(=O)n3C)s1` displayed a z-score of 0.119.

Consider `CCOc1ccc(-c2nc(N)ncc2Oc2cccc(OC)c2)c(O)c1`, for which the z-score is -0.156.

As to `Cc1c(C(=O)OCC(=O)N2CC(C)OC(C)C2)oc2ccc(Br)cc12` (centres undefined), the z-score was -0.32.

In turn, `O=C(C1CC1)N1CCC(c2nc(-c3ccc(S(=O)(=O)NCC4CCCO4)cc3)no2)CC1` (centres undefined) gave a z-score of 1.

Molecule `COc1ccccc1OCC(=O)Nc1ccc(S(=O)(=O)Nc2nc(C)cc(C)n2)cc1` returned a z-score of 0.305.

Consider `COc1ccc(CSc2nc(N3CCOCC3)c3c(c2C#N)CC(C)(C)OC3)cc1`, for which the z-score is -0.283.

In the case of `COc1ccc(Cl)cc1NC(=O)CCCN1C(=O)CCC1=O`, the z-score was determined as 0.187.

`COc1ccc(OC)c(-n2nnnc2SCC(=O)NCc2ccc3c(c2)OCO3)c1` gave a z-score of 0.833.

On to `Cc1ccccc1N1CCN(C(=O)c2ccc(Oc3ccc(C(F)(F)F)cn3)cc2)CC1`, for which the z-score was -0.869.

Turning to `CCS(=O)(=O)N1CCN(C(=O)c2ccccc2)CC1`, the z-score is -0.177.

As to `COc1cc2c(cc1OC)C(C(=O)Nc1ccccn1)C(c1cccnc1)N(C)C2=O` (centres undefined), the z-score is -1.51.

Regarding `CCc1nnc(NC(=O)CSc2nnc(C)n2CC2CCCO2)s1` (centres undefined), the z-score was found to be 0.247.

As for `O=C(Nc1ccc(N2CCOCC2)cc1N1CCOCC1)c1ccco1`, the z-score was -0.133.

As for `Cc1cc2c(cc1C)CSC(c1ccccc1OC(=O)C(C)(C)C)SC2`, the z-score is -0.288.
